Data from the supplement of paper PMC3334620.
The full ranking holds about 33,000 sequences; the median of “E-score (-0.5 to 0.5)” is about -0.035, and the highest 2% start at about 0.35. The list shows a part of the results.

target: T1, Pdr3 (UniProt P33200); experiment: PBM E-score (8-mer binding enrichment) (E-score (-0.5 to 0.5)); higher = stronger / more preferred TF binding; most listed sequences are background and not binding sites; settings: protein concentration: 200 nM; construct: GST-full length
T1 sequence: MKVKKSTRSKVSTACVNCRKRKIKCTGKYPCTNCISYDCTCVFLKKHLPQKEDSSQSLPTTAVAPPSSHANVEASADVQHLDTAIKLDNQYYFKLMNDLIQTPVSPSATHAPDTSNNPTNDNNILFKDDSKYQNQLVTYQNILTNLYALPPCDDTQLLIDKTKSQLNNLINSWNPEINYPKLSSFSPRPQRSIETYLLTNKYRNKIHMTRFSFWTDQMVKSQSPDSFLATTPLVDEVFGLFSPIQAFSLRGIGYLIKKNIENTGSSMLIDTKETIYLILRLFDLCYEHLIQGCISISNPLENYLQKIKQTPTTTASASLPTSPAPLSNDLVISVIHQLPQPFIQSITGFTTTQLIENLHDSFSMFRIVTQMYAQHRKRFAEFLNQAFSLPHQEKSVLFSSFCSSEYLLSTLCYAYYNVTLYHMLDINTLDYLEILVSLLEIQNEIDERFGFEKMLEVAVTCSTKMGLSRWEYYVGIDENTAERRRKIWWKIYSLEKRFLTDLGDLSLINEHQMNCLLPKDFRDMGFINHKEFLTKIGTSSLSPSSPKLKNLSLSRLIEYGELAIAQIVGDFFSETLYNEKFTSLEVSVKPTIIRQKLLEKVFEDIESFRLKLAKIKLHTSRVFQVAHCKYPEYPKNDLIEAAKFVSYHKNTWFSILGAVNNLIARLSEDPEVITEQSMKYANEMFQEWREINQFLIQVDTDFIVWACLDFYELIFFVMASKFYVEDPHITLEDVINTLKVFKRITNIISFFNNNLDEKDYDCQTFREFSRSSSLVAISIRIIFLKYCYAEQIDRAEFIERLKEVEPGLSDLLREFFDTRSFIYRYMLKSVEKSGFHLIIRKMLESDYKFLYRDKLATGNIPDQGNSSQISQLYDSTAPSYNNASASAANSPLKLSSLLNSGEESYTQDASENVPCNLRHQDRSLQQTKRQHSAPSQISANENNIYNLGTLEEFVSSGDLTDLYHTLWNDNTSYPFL
In short: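 Yeast transcription factors carrying a GST tag, as full-length proteins or DNA-binding domains, were produced by PURExpress in vitro transcription/translation. About 100-200 nM protein was applied to universal all-10-mer Agilent arrays, double-stranded by primer extension on fresh or once-stripped slides. Bound protein was detected with fluorescent anti-GST, and scans were normalised with masliner. The Universal PBM Analysis Suite gave each ungapped eight-base word, pooled with its reverse complement, an E-score, a modified Wilcoxon-Mann-Whitney statistic.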

Row | Sequence | PBM E-score
1 | ACGTTTCA | 0.00314
2 | CGACCGGC | 0.161
3 | ACCATCAC | -0.074
4 | GCGAACTA | 0.121
5 | ATACGAAG | -0.0657
6 | AAATAAAC | 0.0234
7 | CCGACAGC | 0.0642
8 | CTACCGTA | -0.141
9 | ACCGTTTC | 0.117
10 | AAGTCTGT | -0.271
11 | GACCGCCC | 0.0625
12 | CGGGTTGC | 0.216
13 | GCCAACGC | -0.0837
14 | GATCAATC | 0.0333
15 | AAACAGGA | -0.209
16 | CAGCGCTG | 0.0819
17 | CCGTAGGA | -0.239
18 | CCCTTTAG | -0.303
19 | CTACTAGA | -0.145
20 | AAGACGAA | -0.0611
21 | TAATGCAA | -0.241
22 | ATCTCTCC | -0.0485
23 | CAAATATG | -0.101
24 | CTAACCAG | -0.169

Row | Sequence | PBM E-score
25 | TAATAGCA | -0.212
26 | ATTTCTTA | 0.0659
27 | GCCCCCGA | -0.0849
28 | ACTGTTGG | -0.141
29 | AGACGAAT | -0.176
30 | CGATGAAG | 0.00294
31 | AAGCATCG | -0.0294
32 | ATCTTCCG | 0.376
33 | ACCGATCT | 0.0319
34 | ATACAAAT | 0.184
35 | ATGATATA | -0.174
36 | CTACTCCC | -0.00145
37 | AGGTGTAT | -0.0351
38 | ATAGCACA | 0.0839
39 | ACGGTTAC | 0.0508
40 | CGTAAACG | -0.083
41 | CTTGGGAC | 0.0381
42 | CCGCAATC | 0.263
43 | AGAGTCTC | -0.078
44 | CCTTAACA | -0.243
45 | AGGGGATA | -0.215
46 | ATTTAGTG | 0.087
47 | AGTATGGC | 0.0513
48 | CTGACAAC | 0.00841

Row | Sequence | PBM E-score
49 | AGGTTTCG | -0.157
50 | ATCAGGAC | 0.0194
51 | AAGCTGAA | 0.0428
52 | ACTTGCCG | -0.00332
53 | ATCGAGTG | 0.051
54 | GGAGCACC | 0.0149
55 | GTTGATAA | -0.0201
56 | GGCCTCCA | -0.0635
57 | ACGGCTTC | 0.097
58 | GAGAATGA | 0.0557
59 | CGACCACG | 0.0268
60 | CTGCAGCC | 0.0486
61 | ATCGCCGC | 0.166
62 | GTCCGCGA | 0.266
63 | AAGGTGCC | 0.0662
64 | AACTTTCT | -0.0449
65 | ATTTCTCC | 0.162
66 | ATAGTAGC | 0.0925
67 | AATGCGCC | 0.242
68 | GGAAGGCA | 0.203
69 | CCATTTTA | 0.0737
70 | CGTGGCCA | -0.217
71 | GTGTGACA | -0.122
72 | GGACGGCA | 0.149

Row | Sequence | PBM E-score
73 | CGGATCGC | 0.279
74 | CGGAAAAC | 0.375
75 | CATAGATC | -0.142
76 | CGTTCGAA | 0.14
77 | AATGCAGA | -0.00017
78 | CCCCTCGC | -0.234
79 | GGACTACA | -0.0255
80 | GCTGATAA | 0.0569
81 | AACGTATA | -0.164
82 | CGCATGAG | -0.164
83 | ATTACAAT | -0.0726
84 | ATTCGTCG | 0.148
85 | TGGTGTAA | -0.145
86 | CACTCCCA | -0.165
87 | AAACTACG | 0.0869
88 | AACTAAAA | 0.00575
89 | AGTCCGCA | 0.203
90 | CGTCCGTC | -0.0265
91 | TCTTGTCA | -0.0406
92 | CGATAATA | 0.0612
93 | TAAATTTA | 0.158
94 | AACGTCCG | 0.254
